In article PMC12040169 (PLOS Biology, 2025):
Some of the results follow.

Test system: T1, C. trachomatis L2/434/Bu expressing GFP (CTL2-GFP)
T1 construct: L2/434/Bu GFP intracellular growth in HeLa cells
Design: species or system HeLa; C. trachomatis total inclusion area by high-content imaging, normalised to DMSO
Details: total inclusion area; 28.5 h, 10 µM; inhibitor
Procedure, shortened: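 High-content images of fixed, Hoechst-stained infected cultures supply inclusion area and count (growth) plus nuclei number (viability), complementing bulk GFP/resorufin fluorescence. MIC determination is unchanged from the primary assay.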

| SMILES | % of control remaining |
| --- | --- |
| NC(=O)c1c(NC(=O)c2ccc3ncsc3c2)sc2c1CCCC2 [CBK287369] | 103.606 |
| Cc1ccc(/C=C/C(=O)O)cc1S(=O)(=O)N1CCCc2ccccc21 [CBK264425] | 114.553 |
| COc1ccc(C(=O)N2CCC3(CCCN(C(=O)c4ccc5occc5c4)C3)C2)cc1OC (stereo not shown) [CBK131665] | 96.4974 |
| O=C(NCCn1nc(-c2cccs2)oc1=O)C1CCCC1 [CBK282345] | 70.6738 |
| CCNC(=O)Nc1ccc(-c2ccc(S(C)(=O)=O)cc2)c2ccccc12 [CBK083728] | 84.9887 |
| CCNC(=O)Nc1ccc2ccc(-c3ccc(SC)cc3)nc2n1 [CBK070656] | 44.9105 |
| N#C/C(=C\c1cccn1-c1ccc(S(N)(=O)=O)cc1)c1nc2ccccc2[nH]1 [CBK266167] | 83.011 |
| O=C(OCc1ccccc1)Sc1nnc(-c2ccc([N+](=O)[O-])cc2)o1 [CBK264504] | 124.116 |
| NS(=O)(=O)c1ccc(CCNC(=O)/C=C/c2ccccc2Cl)cc1 [CBK264379] | 109.91 |
| O=C(NCc1cccs1)NC1CCCc2c1cnn2CCO (stereo not shown) [CBK305658] | 21.0664 |
| CCCC/C=C/c1cnc2[nH]c(=O)n(C3CCOCC3)c2n1 [CBK064253] | 75.2467 |
| CC(=O)c1ccc(-c2nccnc2N2CCCC2CO)s1 (stereo not shown) [CBK037483] | 92.657 |
| COc1ccc(NC(=O)CC(C(=O)O)N2CCCCC2)cc1 (stereo not shown) [CBK267115] | 99.0361 |
| Cn1c(C(=O)Nc2ccc(Cn3cncn3)cc2)cc2cc(F)ccc21 [CBK281584] | 72.9614 |
| COc1ccc(CNc2cnc3ccccc3c2)c(O)c1 [CBK293951] | 100.108 |
| C/C(O)=C1/C(=O)N(c2nc3ccccc3s2)N=C1CC(=O)O [CBK265828] | 119.278 |
| CC(NC(=O)Cn1ccnc1-c1ccccc1)c1ccccn1 (stereo not shown) [CBK281885] | 100.09 |
| CCCC/C=C/c1cnc2[nH]c(=O)n([C@H](CO)C(C)C)c2n1 [CBK064970] | 121.473 |
| O=C1N=C2C=CC=CN2C(=O)C1Cc1ccccc1 (stereo not shown) [CBK287874] | 81.3461 |
| COc1ccc(Cl)cc1Nc1nc(N)nc(CC(=O)CSc2ccc(C)cc2)n1 [CBK265200] | 83.9249 |
| CCN1CCCC1CNC(=O)c1cc(Br)cnc1N1CCOCC1 (stereo not shown) [CBK076213] | 114.034 |
| CC(Oc1ccc(C#N)cc1)C(=O)NCC(C)(C)N1CCOCC1 (stereo not shown) [CBK304066] | 36.8139 |
| CC1CCc2nn(CCNC(=O)Cc3ccc(F)cc3)c(=O)cc2C1 (stereo not shown) [CBK284485] | 113.543 |
| Cc1c(C(=O)N(C)C2CCNCC2)nnn1-c1ccc2ncccc2c1 [CBK306500C] | 79.5576 |
| CC(=O)c1ccc(-c2nc(-c3ccc(Cl)cc3)cnc2N)cc1 [CBK064097] | 77.9633 |
| Cc1cc(C)cc(N(C(C)C(=O)Nc2ccc(C(F)(F)F)cc2)S(C)(=O)=O)c1 (stereo not shown) [CBK268834] | 69.9206 |
| Cc1c(C(=O)O)sc(S(=O)(=O)N2CCN(C(=O)c3ccc(C(C)(C)C)cc3)CC2)c1C(=O)O [CBK297119] | 95.7796 |

| SMILES | % of control remaining |
| --- | --- |
| Cn1cc(CN2CCC(CNc3ccccn3)C2)cn1 (stereo not shown) [CBK304705] | 39.3064 |
| COCCn1c(CN2CCCC(C)C2)nc2c1c(=O)n(C)c(=O)n2C (stereo not shown) [CBK306063] | 79.6857 |
| O=[N+]([O-])c1ccc(S(=O)(=O)CC(CN2CCCC2)N2CCCC2)cc1 (stereo not shown) [CBK266991] | 84.8417 |
| O=C(NCCCN1CCOCC1)c1ccncc1 [CBK264561F] | 111.768 |
| COc1ccc(CN2CCN(c3nccnc3NS(C)(=O)=O)CC2)cc1 [CBK084273] | 70.6879 |
| CNc1nc(C)c(C(=O)N2CCCC(COc3ccc(F)cc3)C2)s1 (stereo not shown) [CBK307234] | 90.49 |
| COc1ccc(S(=O)(=O)N2CCCC(C(=O)Nc3ccc(C(N)=O)cc3)C2)cc1C (stereo not shown) [CBK269163] | 94.5274 |
| O=S(=O)(c1ccc(Br)s1)N1CCC(Cc2ccccc2)CC1 [CBK043580] | 120.223 |
| CCCS(=O)(=O)NC1CCN(c2nc(C(F)(F)F)nc3[nH]cnc23)CC1 [CBK304587] | 68.8363 |
| CN(C)CCN(C)C(=O)c1ccc(-c2ccccc2)nc1N(C)C [CBK106070] | 93.0672 |
| Cc1ccc(C(=O)Nc2ccccc2)cc1S(=O)(=O)N1CCN(C)CC1 [CBK270076] | 67.3493 |
| COc1ccc([C@@]23CC[C@@H](NC(=O)Nc4cccc(SC)c4)C[C@@H]2N(C)CC3)cc1OC [CBK036459T] | 98.3999 |
| O=c1c2ccccc2nc2n1CCN(Cc1ccc(F)c(F)c1)CC2 [CBK284816] | 108.47 |
| CCNC(=O)NC[C@@H]1C=C(C)[C@H](CC(=O)N2CCOCC2)C[C@H]1C(C)C [CBK289051] | 109.09 |
| Cn1c(N2CC[C@H](O)C2)nc2cc(C(=O)NCC3CC3)ccc21 [CBK307164] | 92.0872 |
| CC(C)[C@H](CO)n1c(=O)[nH]c2ncc(-c3cccc(/C=C/C(=O)O)c3)nc21 [CBK065051] | 87.1889 |
| Cc1ccc(S(=O)(=O)NCC(Oc2ccc([N+](=O)[O-])cc2)c2ccccc2)cc1 (stereo not shown) [CBK262208] | 96.2847 |
| COCc1ccc(-c2nccnc2NS(C)(=O)=O)cc1 [CBK049631] | 114.929 |
| O=C(NCCn1cc[nH]c1=O)c1cnc(-c2ccc(Cl)cc2)c(-c2ccc(O)cc2)c1 [CBK036766] | 92.0857 |
| CC(C)c1nc(CC(=O)NCCS(=O)(=O)N2CCc3ccccc32)cs1 [CBK305630] | 69.5254 |
| OCCOc1ccnc2ccccc12 [CBK113395] | 91.9641 |
| CC(NC(=O)/C=C\C(=O)O)c1ccc2c(c1)OCO2 (stereo not shown) [CBK286996] | 94.6012 |
| Cc1cc(NS(=O)(=O)c2cccc3nonc23)n(C)n1 [CBK067247] | 73.9431 |
| COc1cc(OC)c2c(c1)OCC1CON(C)C21 (stereo not shown) [CBK011446] | 95.9069 |
| O=C(NC(=S)Nc1ccc(N2CCN(Cc3ccccc3Cl)CC2)cc1)c1ccco1 [CBK266066] | 86.7044 |
| CC(=O)N1CC[C@H]2NC(=O)CNC(=O)C3(CCCC[C@H]2C1)CCN(C(=O)c1n[nH]c2c1CCC2)CC3 [CBK292012] | 107.324 |
| Cc1ccc(S(=O)(=O)Nc2ccc(C(=O)O)cc2)cc1[N+](=O)[O-] [CBK034055] | 108.451 |

| SMILES | % of control remaining |
| --- | --- |
| c1ccc2c(c1)OCC(COc1ccnc(N3CCCN(CCN4CCOCC4)CC3)n1)O2 (stereo not shown) [CBK083976] | 73.3508 |
| Cc1cc(C2CCCCCN2Cc2cc(Cl)ccc2O)on1 (stereo not shown) [CBK281948] | 107.798 |
| O=C1Nc2c(cnn2-c2ccc(F)cc2)C2=NCCN12 [CBK284351] | 86.6097 |
| Cc1cnc(CNC(=O)N(CCC#N)C2CCCCC2)cn1 [CBK156352] | 105.345 |
| CC(=O)Nc1ccc(CNc2ccc(Cl)cc2)cc1 [CBK012799] | 40.9462 |
| Cc1cc2nnc(SCC(=O)Nc3ccc4c(c3)OCO4)n2c2ccccc12 [CBK265926] | 75.8014 |
| COc1ccc(C(=O)Nc2ccc(CC(=O)O)cc2)cc1 [CBK269736] | 68.0773 |
| Nc1cc2ccccc2c(-c2ccncc2)n1 [CBK085708] | 99.5002 |
| Oc1c(CN2CCN(Cc3ccc4cccnc4c3O)CC2)ccc2cccnc12 [CBK261994] | 86.04 |
| Cc1ccc2c(CC(=O)N(C)CCN(C)C)c(C)[nH]c2c1C [CBK282157] | 117.266 |
| COc1cccc(/C=C2\SC(=S)N(CC(=O)NNC(=O)c3ccccc3O)C2=O)c1 [CBK262202] | 97.467 |
| O=C(N/N=C/c1ccc(O)cc1)c1c[nH]c2ccccc12 [CBK262193] | 93.8699 |
| Nc1nc2ccccc2n1/N=C/c1ccc([N+](=O)[O-])cc1 [CBK262239] | 105.605 |
| O=C(O)c1cccc(NC(=S)NC(=O)c2ccc(-c3ccc(Br)cc3)o2)c1 [CBK265014] | 85.2909 |
| NC(=O)C1CCN(C(=O)Cc2csc(COc3ccc(Cl)cc3)n2)CC1 [CBK304519] | 73.0106 |
| Cc1csc(Sc2cc(N3CCCC3)ncn2)n1 [CBK093745] | 96.5518 |
| CC(=O)c1cccc(NC(=O)Cn2nc(C)ccc2=O)c1 [CBK304653] | 44.4709 |
| Cc1cc(C(=O)NC(Cn2ccnc2)c2ccccc2)cc(=O)[nH]1 (stereo not shown) [CBK306818] | 70.3107 |
| O=[N+]([O-])c1ccccc1S(=O)(=O)N1CCN(c2ccnc3cc(Cl)ccc23)CC1 [CBK267271] | 90.6782 |
| COc1ccccc1NC(=O)N1CCC2(CC1)NC(=O)Cc1cc3ccccc3cc12 [CBK047284] | 88.1687 |
| CC(C)(Oc1ccc(Cl)cc1)C(=O)NCCc1ccc(S(N)(=O)=O)cc1 [CBK265628] | 102.631 |
| O=C(NCCc1c[nH]c2ccccc12)C(=O)Nc1ccncc1 [CBK287754] | 100.561 |
| Cc1nn(C)c(C)c1CCC(=O)OCc1cc(=O)n2ccccc2n1 [CBK305690] | 43.2069 |
| CN1CCN(S(=O)(=O)c2ccc3c(c2)oc(=O)c2cc(S(=O)(=O)N4CCN(C)CC4)ccc23)CC1 [CBK267206] | 98.4493 |
| Cc1cccc(OC(C)C(=O)Nc2ccccc2C(=O)N2CCCCC2)c1 (stereo not shown) [CBK269960] | 98.4238 |
